From ChEMBL document CHEMBL1201862, “PubChem BioAssay data set” (2004) come the findings set out here.

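Exposure lasted 48 hours, with cells grown in 96-well plates and compounds tested at five concentrations. GI50: concentration for 50% inhibition of growth.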 Calls of active or inactive are those of the source. Cut-off read from the data, not from the text of the source: active = GI50 up to about 1.1 µM and inactive = higher. Bounds are passed on as bounds.

The subject of the assay is NCI-H322M. As to the kind of experiment: inhibition of tumour cell growth, NCI panel, 48 h.
On to `NCC1OC(n2cnc3c(=O)[nH]c(N)nc32)C(O)C1O` (stereo not drawn), for which the GI50 is inactive: > 100 µM.

Consider `CN(C)CCNCCN`, for which the GI50 is inactive: > 100 µM.

With `COc1ccc(NC(S)=Nc2cccc(C)n2)cc1`, the GI50 was inactive: > 100 µM.

As to `CC(=O)O[C@@]12CO[C@@H]1C[C@@H](O)[C@@]1(C)C(=O)[C@H](O)C3=C(C)[C@@H](OC(=O)[C@H](O)[C@@H](NC(=O)c4ccccc4)c4ccccc4)C[C@@](O)([C@@H](OC(=O)c4ccccc4)C12)C3(C)C` (stereo partly drawn), the GI50 was active: 0.0588 µM.

As for `Nc1nc(N)nc(CCCc2nc(N)nc(N)n2)n1`, the GI50 was inactive: > 100 µM.

As to `CCN(CC)c1ccc2cc(-c3nnc(-c4ccccc4)o3)c(=O)oc2c1`, the GI50 is inactive: 53.8 µM.

Turning to `O=C(O)c1ccc2c(c1C(=O)O)C(=O)OC2(c1ccc(O)cc1)c1ccc(O)cc1`, the GI50 is inactive: > 100 µM.

In the case of `NC(=O)c1ccc[n+](C2=C([N-]S(=O)(=O)c3ccccc3)C(=O)c3ccccc3C2=O)c1`, the GI50 is inactive: 15.9 µM.

For `Cc1ccc(/N=C2\C(=N/c3ccc(C)cc3)N(c3ccc(C)cc3)C(=S)N2C(=O)c2ccccc2)cc1`, the GI50 is inactive: > 100 µM.

Turning to `Cc1ccc2nc(/C=N/c3ccccc3Cl)cc(C)c2c1`, the GI50 is inactive: > 100 µM.

Take `CCC[N+](C)(C)CCCNC(=O)c1c(O)c2ccccc2[nH]c1=O`: the GI50 is inactive: > 100 µM.

As to `CO/C(=N\N=Cc1ccccc1)c1ccncc1`, the GI50 is inactive: > 100 µM.

`O=C(c1ccccc1)c1ccc2nc3n(c2c1)C(c1c(Cl)cccc1Cl)SC3` (stereo not drawn): the GI50 was inactive: 10.3 µM.

In the case of `CC1=C(C)[C@@]2(C)O[C@@]2(C)O[C@@]2(C)O[C@@]12C`, the GI50 was inactive: > 100 µM.

Regarding `O/N=C1\C=Cc2nn(-c3ccccc3)nc2\C1=N/O`, the GI50 is inactive: 8.15 µM.

With `CCOC(=O)NN(C(=O)OCC)C(C(=O)c1ccc(Cl)cc1)=C1NCCN1`, the GI50 was inactive: > 100 µM.

For the compound `C/N=C/N(C)c1c2ccccc2nc2ccccc12`, the GI50 was inactive: > 100 µM.

For `Sc1nnc(NNc2ccccc2)n1Nc1ccccc1`, the GI50 was inactive: > 86.1 µM.

Consider `CCOC(=O)N/N=C/C1=NN(C(=O)OCC)[S+]([O-])C1C` (stereo not drawn), for which the GI50 is inactive: > 100 µM.

On to `N=c1oc2ccc(Cl)cc2cc1C(N)=O`, for which the GI50 is inactive: 26.2 µM.

As for `COC(=O)C1CC2CC(=NNC(N)=O)CC2C1` (stereo not drawn), the GI50 is inactive: > 100 µM.

`O=[N+]([O-])c1cc(-c2nc(-c3ccccc3)c(-c3ccccc3)[nH]2)c(O)c([N+](=O)[O-])c1`: the GI50 is inactive: 20.6 µM.

For the compound `COC1/C=C\OC2(C)Oc3c(C)c(O)c4c(O)c(c(CN(C)C)c(O)c4c3C2=O)NC(=O)/C(C)=C\C=C/C(C)C(O)C(C)C(O)C(C)C(OC(C)=O)C1C` (stereo not drawn), the GI50 is inactive: 24.8 µM.

Regarding `CC1CCP(=O)(c2ccccc2)c2ccccc21` (stereo not drawn), the GI50 was inactive: > 100 µM.

As to `C1COCCOP2(N3CC3)=NP(N3CC3)(=NP(N3CC3)(N3CC3)=N2)OCCOCCO1` (stereo not drawn), the GI50 was inactive: > 100 µM.

As to `Cc1cc2oc(=O)c(Cl)c(Cl)c2c(C)c1Cl`, the GI50 is inactive: 17.1 µM.

As to `COC(=O)C1C(O)C(C)C(O)C(C)(O)C=C(C)C2=C3C(=C(C)C(=O)c4c(O)c(c(C)c(OC(C)=O)c43)NC(=O)C(C)=C/C=C\C(C)(O)C(O)C(C)C1O)OCO2` (stereo not drawn), the GI50 is inactive: > 100 µM.

`Nc1nc(-c2ccccc2)cc(-c2cc(Cl)ccc2O)n1`: the GI50 was inactive: 95.5 µM.

Consider `CC1(C)CC(=O)c2c(nc(SSc3nc4c(c(-c5ccc(Br)cc5)c3C#N)C(=O)CC(C)(C)C4)c(C#N)c2-c2ccc(Br)cc2)C1`, for which the GI50 is inactive: > 10 µM.

Consider `C=C(C)C1CC2(C)C(C)CC(O)CC2C(OC(=O)C=C(C)C)C1O` (stereo not drawn), for which the GI50 was inactive: > 100 µM.

With `C#CCNC(=O)N(CC#C)N=O`, the GI50 is inactive: > 100 µM.

As for `CNC(=O)c1nn[nH]c1Sc1c([N+](=O)[O-])ncn1C`, the GI50 was inactive: > 100 µM.

Regarding `CC(=O)OCC1OC(SC2=N/C(=C\c3cc4c(=O)c5ccccc5sc4s3)C(=O)N2c2ccccc2)C(OC(C)=O)C(OC(C)=O)C1OC(C)=O` (stereo not drawn), the GI50 was inactive: > 100 µM.

Take `Cc1c2cnccc2nc2[nH]c3ccncc3c12`: the GI50 is inactive: 5.3 µM.

For the compound `c1ccc2c(c1)oc1ccc3nsnc3c12`, the GI50 is inactive: > 100 µM.

In the case of `CCOC(=O)NC/C=C/CO`, the GI50 is inactive: > 100 µM.

With `Cc1ccc(-n2cc(-c3ccc(Cl)cc3)c3c(=N)n(N)cnc32)cc1`, the GI50 is inactive: 14.4 µM.

With `CCOC(=O)C(=CNc1ccc(F)c(F)c1)C(=O)OCC`, the GI50 was inactive: > 100 µM.

On to `N#Cc1c(-c2ccc(Cl)cc2)c(C#N)c(=O)n(NS(=O)(=O)c2ccccc2)c1O`, for which the GI50 was inactive: 34.8 µM.

For `O=C1C=C(c2ccccc2)O/C1=C\C(=O)c1ccc(Cl)cc1`, the GI50 is inactive: > 100 µM.

For the compound `C[C@@]12C[C@@H](c3ccccc3O1)N1CCCCSC1=N2`, the GI50 was inactive: > 100 µM.

Turning to `CCN(CC)CC(=O)/C=C/c1ccc(C)cc1`, the GI50 was inactive: 33.2 µM.

For the compound `COc1ccc(-c2c(C#N)c(O)n(C3OC(COC(C)=O)C(OC(C)=O)C(OC(C)=O)C3OC(C)=O)c(=S)c2C#N)cc1` (stereo not drawn), the GI50 was inactive: 48 µM.

As to `CC(=O)Nc1ccc2c3c(cc(O)c2c1)N(C(=O)CCCC(=O)Nc1ccc2c4c(cc(O)c2c1)N(C(=O)OC(C)(C)C)CC4CCl)CC3CCl` (stereo not drawn), the GI50 was inactive: 3 µM.

As for `O=C1CC(c2c(-c3ccccc3)[nH]c3ccccc23)C(=O)N1` (stereo not drawn), the GI50 is inactive: > 100 µM.

With `Cc1ccc(O)c(C2=NNC(c3cccc(Br)c3)C2)c1` (stereo not drawn), the GI50 is inactive: > 100 µM.

On to `CCCCCCC(=O)C/C(=N/NC(N)=S)C(=O)NC1C2CC3CC(C2)CC1C3` (stereo not drawn), for which the GI50 was inactive: > 100 µM.

For the compound `O=C1c2ccccc2C(=O)N1C/C=N/NS(=O)(=O)c1cccc([N+](=O)[O-])c1`, the GI50 was inactive: > 100 µM.

On to `CCOC(=O)O/N=C1/C(=C2/C(=O)Nc3ccccc32)Nc2ccccc21`, for which the GI50 was inactive: 6.01 µM.

`O=C1CCC(C(=O)O)C2=C1CCCC2` (stereo not drawn): the GI50 was inactive: 20.3 µM.

On to `C=CCNc1ccc(C)cc1`, for which the GI50 is inactive: > 100 µM.

As for `Nc1ncnc2c1ncn2C(=O)NC12CC3CC(CC(C3)C1)C2`, the GI50 was inactive: > 100 µM.

`CCN(CC)CCNC(=O)c1ccccc1Nc1c(Cl)cccc1Cl`: the GI50 was inactive: 13.4 µM.

With `O/N=N/c1ccc([SH2]c2ccc3ccccc3c2)cn1`, the GI50 was inactive: 40 µM.

`CC(C)OP(=S)(NC(=S)c1ccccc1)OC(C)C`: the GI50 is inactive: > 100 µM.

`CSCC[C@@H](NC(=O)[C@H](CC(C)C)NC(=O)C(Cc1cnc[nH]1)NC(=O)CNC(=O)[C@@H](NC(=O)[C@H](C)NC(=O)[C@H](Cc1c[nH]c2ccccc12)NC(=O)[C@H](CCC(N)=O)NC(=O)[C@@H](N)CC(N)=O)C(C)C)C(N)=O` (stereo partly drawn): the GI50 was inactive: > 100 µM.

On to `C[C@@H](CC(O)C1OC1(C)C)[C@@H]1CC[C@]2(C)C3=CCC4C(C)(C)C(O)CC[C@]4(C)C3CCC12C` (stereo partly drawn), for which the GI50 was inactive: 26.5 µM.

On to `Nc1nc(Cl)cc(Nc2cc(Cl)cc(Cl)c2)n1`, for which the GI50 is inactive: 18.4 µM.
